Some of the results follow. Values were computed here from the reads of four pooled replicates and scatter widely.

This note sets out measurements from the BET-seq Pho4 binding data (Le et al. 2018).

For the test, the target named is T1, Pho4 (S. cerevisiae) (UniProt P07270).
T1 sequence: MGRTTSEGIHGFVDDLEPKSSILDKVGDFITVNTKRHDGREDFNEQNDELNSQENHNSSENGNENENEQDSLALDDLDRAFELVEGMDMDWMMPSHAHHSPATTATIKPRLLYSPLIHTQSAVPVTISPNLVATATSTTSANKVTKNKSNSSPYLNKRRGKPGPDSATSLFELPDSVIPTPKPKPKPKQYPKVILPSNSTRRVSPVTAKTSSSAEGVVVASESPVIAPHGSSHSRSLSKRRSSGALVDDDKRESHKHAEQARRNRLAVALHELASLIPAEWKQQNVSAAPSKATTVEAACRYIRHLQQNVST
The test is described as follows: relative binding free energy (BET-seq); higher = weaker binding. The following applies: reference: library average.
Consider TAGTACACGTGTTATA, for which the “relative binding free energy” value was found to be 0.377 kJ/mol.
The result for ATAGTCACGTGTTCCG reads 1.05 kJ/mol.
Regarding CATAGCACGTGGGGTA, the “relative binding free energy” value is -1.38 kJ/mol.
As for TTTTCCACGTGTATGG, the figure is 0.209 kJ/mol; as for TTTATCACGTGTTCTG, 0.586 kJ/mol; as for GTTTACACGTGTTTTT, 1.09 kJ/mol.
As for TTGGTCACGTGCGAAG, the figure is 0.544 kJ/mol.
The result for AGGATCACGTGTGTGC reads 0.544 kJ/mol; that for AAGTTCACGTGGCGGC, 1.13 kJ/mol; that for ATTCGCACGTGGGCTG, -0.377 kJ/mol.
Take CTGGTCACGTGGGGTA: the “relative binding free energy” value is -0.167 kJ/mol.
As for TAAGGCACGTGAGGCT, the figure is 0.502 kJ/mol.
As for GCGTACACGTGAGGGT, the figure is 1.17 kJ/mol.
As to TGTATCACGTGTGCGG, the “relative binding free energy” value is 0.795 kJ/mol.
The result for GGGAACACGTGTCGGA reads 0.628 kJ/mol; that for TTTTGCACGTGTTAAC, 0.0418 kJ/mol.
As for TGGAGCACGTGGTCCT, the figure is -0.418 kJ/mol; as for TCAGTCACGTGAGATT, 1.51 kJ/mol.
Consider TGAGGCACGTGATAGG, for which the “relative binding free energy” value was -0.126 kJ/mol.
As for AGGTACACGTGATTAT, the figure is 0.502 kJ/mol.
On to TTAATCACGTGAGATG, for which the “relative binding free energy” value turned out to be 1.72 kJ/mol.
As for CATTTCACGTGAAATG, the figure is 1.46 kJ/mol.
Regarding GGGGGCACGTGATTAA, the “relative binding free energy” value was -0.209 kJ/mol.
In the case of TGTCTCACGTGAGTTC, the “relative binding free energy” value came to 1.59 kJ/mol.
As for TATAGCACGTGTATAA, the figure is -0.167 kJ/mol.
As for TGACACACGTGTGTTT, the figure is 0.502 kJ/mol; as for GTATGCACGTGGATGG, -0.377 kJ/mol.
As for TTTGACACGTGGTCTG, the figure is -0.0837 kJ/mol.
AATATCACGTGGTAAG: the “relative binding free energy” value amounted to 0.879 kJ/mol.
As for AAGCGCACGTGTTGGG, the figure is -0.126 kJ/mol.
As for TGAGGCACGTGCATAG, the figure is -0.837 kJ/mol.
As to CGATGCACGTGGTTTA, the “relative binding free energy” value was -0.544 kJ/mol.
Turning to TTTGACACGTGCCGGG, the “relative binding free energy” value was -0.879 kJ/mol.
The result for TGGCTCACGTGTAGTC reads 1.38 kJ/mol; that for GCGTTCACGTGGGTGC, 0.753 kJ/mol.
As for GGTCGCACGTGGCGTG, the figure is 0 kJ/mol; as for ATAGGCACGTGAAAGG, -0.0418 kJ/mol.
The result for TTATTCACGTGGTAGC reads 0.795 kJ/mol; that for TTAAGCACGTGGTGAA, -0.711 kJ/mol.
Turning to ATTGACACGTGGTTGC, the “relative binding free energy” value is -0.753 kJ/mol.
Take AATTCCACGTGGGTTT: the “relative binding free energy” value is -0.167 kJ/mol.
TAATGCACGTGTCATG: the “relative binding free energy” value was -0.0418 kJ/mol.
Regarding TGGTGCACGTGCGCAG, the “relative binding free energy” value was -1 kJ/mol.
As for GAGTTCACGTGTCTTG, the figure is 1.38 kJ/mol; as for TGTAGCACGTGTACGT, -0.293 kJ/mol; as for CGTGTCACGTGTAAAT, 1.38 kJ/mol.
For TGTAACACGTGGTGTG, the “relative binding free energy” value is -0.669 kJ/mol.
As for GCTTGCACGTGCGTTG, the figure is -0.209 kJ/mol.
As for GGATGCACGTGGTCGT, the figure is -0.251 kJ/mol; as for GTGATCACGTGCTGGA, 0.544 kJ/mol; as for TTGTACACGTGAGGGT, 1.09 kJ/mol.
As for GATTGCACGTGGCGGA, the figure is 0.502 kJ/mol; as for TCGTGCACGTGTGGTT, 0.209 kJ/mol.
For the sequence TTATCCACGTGATTTG, the “relative binding free energy” value came out at 0.628 kJ/mol.
The result for TATAGCACGTGTGGGC reads -0.502 kJ/mol; that for GTTCTCACGTGTGCGT, 0.795 kJ/mol.
TTGTCCACGTGAGTTA: the “relative binding free energy” value is 1.05 kJ/mol.
The result for TTGACCACGTGCTGGT reads -0.0837 kJ/mol.
The result for TAGGTCACGTGGAATA reads 0.251 kJ/mol; that for TCGGTCACGTGTGTCG, 0.293 kJ/mol.
As to GGGGTCACGTGGCGCG, the “relative binding free energy” value came to 0.502 kJ/mol.
For the sequence AGTGTCACGTGTCTAT, the “relative binding free energy” value is -0.0837 kJ/mol.
For TGTGGCACGTGGCTGA, the “relative binding free energy” value was -0.92 kJ/mol.
As for GGAGGCACGTGAGGAG, the figure is 0.251 kJ/mol; as for GGATACACGTGGGAAT, 0.502 kJ/mol; as for TGGCGCACGTGTGTCG, -0.293 kJ/mol.
As for TCAGTCACGTGGTCTT, the figure is 0.167 kJ/mol; as for GCGGGCACGTGGGATT, -0.0418 kJ/mol; as for TATTGCACGTGTTTGC, -0.502 kJ/mol.
Regarding TGTCGCACGTGCGGTG, the “relative binding free energy” value was -0.795 kJ/mol.
Take CGGGTCACGTGCCGGT: the “relative binding free energy” value was 0.251 kJ/mol.
For the sequence TAGTTCACGTGTTAAG, the “relative binding free energy” value was 1.67 kJ/mol.
As for AACATCACGTGTGGTG, the figure is 0.251 kJ/mol.
As for ATATGCACGTGAAGAG, the figure is 0.92 kJ/mol.
In the case of TCGGTCACGTGACTGT, the “relative binding free energy” value was 0.502 kJ/mol.
The result for ACGTTCACGTGATAGT reads 1.51 kJ/mol; that for TGCTACACGTGTATAT, 0.879 kJ/mol.
The result for TAGGGCACGTGGCGCG reads -1 kJ/mol; that for TTAGACACGTGTAGTC, 0.628 kJ/mol; that for CTGCGCACGTGGGTAG, -1 kJ/mol.
For the sequence GTATGCACGTGTGGTC, the “relative binding free energy” value is 0.418 kJ/mol.
The result for CAAGGCACGTGGGTGG reads -1.26 kJ/mol; that for AGGGTCACGTGATCGT, 0.669 kJ/mol; that for TGGGGCACGTGTAGCT, 0.167 kJ/mol.
In the case of TGAAGCACGTGGTTGT, the “relative binding free energy” value is -0.0837 kJ/mol.
Take TGTTGCACGTGTAGCT: the “relative binding free energy” value is 0.126 kJ/mol.
GTGTACACGTGGGTGG: the “relative binding free energy” value worked out at 0 kJ/mol.
ATGGGCACGTGGGCAT: the “relative binding free energy” value is -0.962 kJ/mol.
As for GCATGCACGTGGGCAG, the figure is -0.669 kJ/mol; as for CGGGTCACGTGTTACG, 1.05 kJ/mol.
On to CCGGTCACGTGAGGGT, for which the “relative binding free energy” value was determined as 0.586 kJ/mol.
The result for TAGCTCACGTGTATTT reads 0.92 kJ/mol.
As for TGTTACACGTGCGTTT, the figure is 0.46 kJ/mol; as for CTGGCCACGTGGCGGG, -0.92 kJ/mol.
Turning to CTGCGCACGTGCGGGT, the “relative binding free energy” value is -0.795 kJ/mol.
On to TGGAGCACGTGGTGAA, for which the “relative binding free energy” value is -0.46 kJ/mol.
As for ATGGACACGTGTGAGA, the figure is 0.544 kJ/mol.
As for TTGAGCACGTGATTCT, the figure is -0.0418 kJ/mol; as for TAACGCACGTGGGGTT, -0.795 kJ/mol; as for AATGACACGTGTGGGG, 0.544 kJ/mol.
The result for TTACACACGTGGGGCG reads -0.46 kJ/mol.
For the sequence AGGCACACGTGATGGG, the “relative binding free energy” value is -0.209 kJ/mol.
As to CGTGTCACGTGTCTTA, the “relative binding free energy” value was found to be 0.293 kJ/mol.
The result for GTTTACACGTGTAGTA reads 0.628 kJ/mol; that for GATTTCACGTGTTTTT, 1.46 kJ/mol; that for ATGGGCACGTGCAGGG, -0.628 kJ/mol.
Turning to TTGTCCACGTGGTAGA, the “relative binding free energy” value is 0.293 kJ/mol.
ATTGTCACGTGTGCCA: the “relative binding free energy” value was 0.669 kJ/mol.
As for GGTTGCACGTGAATTG, the figure is 1.3 kJ/mol.
With TGATACACGTGTTAAT, the “relative binding free energy” value is 0.0418 kJ/mol.
The result for TGGTACACGTGTTACT reads 0.0837 kJ/mol; that for TCGATCACGTGATGTG, 1.46 kJ/mol.
As for TGTTTCACGTGGCCGT, the figure is 0.586 kJ/mol; as for TAATGCACGTGTTGGG, 0.293 kJ/mol.
As for TCGTGCACGTGCGGGT, the figure is -0.418 kJ/mol.
